Measured values as given in PubChem BioAssay AID463173 (ICCB-Longwood Screening Facility, Harvard Medical School, 2010).
The campaign covered roughly 52,000 compounds. About 4,300 (8.3%) were called active. Rule as the data show it: active = survival mostly below about 52% (no sharp cut-off); inactive = mostly above about 56%. This is one part of the list.

test system: DeltatarO mutant; assay: growth inhibition of S. aureus wild type versus tarO mutant, primary screen, teichoic acid synthesis inhibitors, RN4220, OD600 (AID 463173); conditions: OD600, 18 h, active compounds read low, screened at 18.75 µg/mL (by protocol)

SMILES	survival
Cc1ccc(C)c(Cn2nnc(C(=O)NCc3ccc(Cl)cc3Cl)c2N)c1	inactive: 62%
CCOC(=O)c1cc2c(ccn2-c2ccc(F)cc2)n1CC(=O)NC1CCCCC1	inactive: 98%
COc1ccc(OCCCn2c(=O)oc3ccc(C)cc32)cc1	inactive: 39%
CCOC(=O)CNc1cccc(Cl)c1	inactive: 90%
Cc1ccc(C)c(N(C)C(=O)C2CCN(c3ncnc4c3nc3n4CCCCC3)CC2)c1	inactive: 67%
CCN(CC)C(=O)/C(=C\c1ccc(OC)c(OC)c1)n1ccccc1=O	inactive: 103%
COc1ccc(CCNC(=O)CCCCCn2c(SCC(N)=O)nc3cc4c(cc3c2=O)OCO4)cc1OC	inactive: 74%
Cc1ccc(S(=O)(=O)N2CCCc3cc(NC(=O)c4ccccc4Cl)ccc32)cc1	inactive: 94%
CCN(CC)S(=O)(=O)c1ccc2c(c1)N(CC(=O)Nc1ccc(F)cc1)C(=O)CO2	inactive: 75%
CCn1c(=O)cc(OCC(=O)Nc2cc(OC)c(OC)c(OC)c2)c2ccccc21	inactive: 47%
COCCNC(=O)CSc1nc2ccccc2nc1Cc1ccc(C)cc1	inactive: 78%
COc1cccc(N2CCN(c3ccc4nnc(CCC(=O)O)n4n3)CC2)c1	inactive: 89%
CCOc1ccc(CNC(=O)c2ccc3nc(CC)c(CC)nc3c2)cc1OC	inactive: 80%
CCc1ccc(S(=O)(=O)c2c(C(=O)c3ccc(C)c(C)c3)cnc3ccccc23)cc1	inactive: 90%
Cn1cnc(S(=O)(=O)N2CCCC(C(=O)Nc3cccc(C#N)c3)C2)c1 (configuration not stated)	inactive: 124%
COc1ccc(NC(=O)N(Cc2nnc3n2CCCCC3)c2ccc(OC)c(Cl)c2)cc1	inactive: 60%
O=C(Nc1c(C(=O)c2ccc(F)cc2)oc2ccccc12)c1cc(-c2ccccc2)on1	inactive: 77%
Cc1ccc(CNCc2c(C(=O)O)c(C)n(Cc3ccc(C)cc3)c2C)cc1	inactive: 85%
CCN(CC)S(=O)(=O)c1nnc(NC(=O)COc2cccc(C)c2)s1	inactive: 94%
Cc1c(C(=O)NCc2ccccc2Cl)cccc1-n1cnc2cccnc21	inactive: 78%
Cc1cccc(CNC(=O)c2ccc3nc(-c4ccccc4)c(-c4ccccc4)nc3c2)c1	inactive: 75%
Cc1cccc(NC(=O)Cn2c(=O)n(CCc3ccccc3)c(=O)c3sc4ccccc4c32)c1	inactive: 105%
CCC12CN3CC(C)(CN(C1)C3c1c(C)n(C)c3ccccc13)C2=O (configuration not stated)	inactive: 79%

SMILES	survival
CC(C)CC(=O)Nc1ccc(S(=O)(=O)NCc2ccco2)cc1	inactive: 111%
CCS(=O)(=O)N1CCNCC1	inactive: 80%
O=C(Cn1c(=O)n(-c2ccccc2)c(=O)c2c3c(sc21)CCCC3)Nc1cccc(F)c1	inactive: 94%
CN(C)c1ccc(CNC(=O)c2ccc(NC(=O)c3nsc4ccccc34)cc2)cc1	inactive: 84%
COc1cccc(Cc2nc3ccccc3nc2SCC(=O)Nc2ccccc2F)c1	inactive: 67%
COc1cc2c(cc1OC)C(C)N(C(C)=O)CC2 (configuration not stated)	inactive: 75%
COc1ccc(CCN2C(=O)c3[nH]nc(-c4ccccc4O)c3C2c2ccc(O)c(OC)c2)cc1 (configuration not stated)	active: 30%
COc1ccc(-c2c(C)nn3c(-c4ccccc4)cc(-c4ccccc4)nc23)cc1OC	inactive: 96%
CCOC(=O)CC(NC(=O)c1cc2c(=O)n3cccc(C)c3nc2s1)c1ccc(OCC(C)C)c(OC)c1 (configuration not stated)	inactive: 64%
O=C(NC1CCCCC1)c1cc(Nc2ccccc2)nc2ccccc12	inactive: 60%
COC(=O)c1ccc(NC(=O)CCNS(=O)(=O)c2cccc3nsnc23)cc1	inactive: 65%
CCC(CC)C(=O)Nc1nnc2n1CCS2	inactive: 113%
O=C(CSc1nc2c([nH]c3ccccc32)c(=O)n1-c1ccc(F)cc1)N1CCCc2ccccc21	inactive: 78%
O=C1CC2C(=O)NCCN2C(=NC(=O)c2ccc(Cl)cc2)N1 (configuration not stated)	inactive: 99%
O=C(Nc1c[nH]c(=O)[nH]c1=O)c1cccc(C(=O)Nc2c[nH]c(=O)[nH]c2=O)c1	inactive: 78%
CCOC(=O)Cn1c(=O)n(C2CCCCC2)c2nc(-c3ccccc3Cl)nc(C(N)=O)c21	inactive: 84%
Cc1cccc(C)c1OCc1nc2c3cnn(-c4ccccc4Br)c3ncn2n1	inactive: 69%
Nc1c(-c2nc(-c3ccc(Cl)cc3)no2)nnn1-c1ccc(C(F)(F)F)c(Cl)c1	inactive: 75%
COc1cc(NC(=O)c2cc(C3CC3)nc3c2c(C)nn3-c2ccc(C)cc2)cc(OC)c1	inactive: 92%
CCOCCCn1c(SCC(=O)NCCCOC)nc2c(sc3ccccc32)c1=O	inactive: 126%
Cc1ccccc1Nc1cc(C(=O)NC2CCCCC2)c2ccccc2n1	inactive: 125%
CCOCCCNC(=O)c1c[nH]c2ccc(S(=O)(=O)Nc3cccc(Cl)c3C)cc2c1=O	inactive: 93%
Cn1c(=O)oc2cc(S(=O)(=O)N3CCCC(C(=O)N4CCN(c5ccccc5F)CC4)C3)ccc21 (configuration not stated)	inactive: 94%

SMILES	survival
CCOC(=O)N1CCc2c(sc3c2c(=O)n(-c2ccc(Cl)cc2)c(=O)n3Cc2cccc(C)c2)C1	inactive: 74%
Cc1cc2c(cc1S(=O)(=O)N(C)CC(=O)Nc1cccc(C#N)c1)OCC(=O)N2	active: -2%
Nc1sccc1C(=O)c1ccccc1	inactive: 96%
CCOC(=O)c1cccc(NC(=O)CCn2nc(C)c3c(C)n(-c4ccccc4)nc3c2=O)c1	inactive: 69%
COCCCNC(=O)C1CCCN(S(=O)(=O)c2ccc3c(c2)oc(=O)n3C)C1 (configuration not stated)	inactive: 102%
COc1ccccc1C(=O)NCC1(N2CCN(C)CC2)CCCCC1	inactive: 69%
Cc1ccc(C)c(NC(=O)N2CCC(N3CCN(Cc4ccc(F)cc4)C(=O)C3=O)CC2)c1	inactive: 99%
COc1ccccc1CNC(=O)c1ccc(CN2CC(=O)N3CCCCC3C2=O)cc1 (configuration not stated)	inactive: 81%
CCN(CC)c1ccc(NC(=O)CN2CCN(CC(=O)Nc3ccccc3OC)CC2)cc1	inactive: 124%
CN(C)CCCNc1nc(-c2ccc(Cl)cc2)cs1	inactive: 132%
Cc1ccc2occ(CC(=O)N(Cc3ccc(N(C)C)cc3)C3CCS(=O)(=O)C3)c2c1 (configuration not stated)	inactive: 74%
CN(c1ccccc1)C(c1ccc(F)cc1)c1nnnn1CC1CCCO1 (configuration not stated)	inactive: 86%
CCOc1ccc(CNC(=O)CCC(=O)N2CCSc3ccccc32)cc1	inactive: 50%
O=C(c1ccccc1)N1CCN(c2ccc(F)cc2)CC1	inactive: 78%
COc1ccccc1N1CCN(S(=O)(=O)c2cc3[nH]c(=O)c(=O)[nH]c3cc2C)CC1	inactive: 79%
Cc1ccc(C)c(NC(=O)C(Cc2ccccc2)N2Cc3ccccc3C2=O)c1 (configuration not stated)	inactive: 118%
Cc1ccc(CCNc2ncnc3onc(C)c23)cc1	inactive: 105%
COc1cccc(-c2nc3c(C#N)c[nH]n3c2NC2CCCCC2)c1OC	inactive: 60%
CC(C)N1CCN(S(=O)(=O)c2ccc(Cl)cc2)CC1	inactive: 90%
COc1ccc(Br)cc1Cc1nc(C)cc(Cl)n1	inactive: 71%
CC(NC(=O)c1sc2ncccc2c1-n1cccc1)c1ccccc1 (configuration not stated)	inactive: 95%
COc1cc(OC)c2c(C)cc(=O)oc2c1	inactive: 112%
COc1ccc(NC(=O)N2CCc3c([nH]c4ccc(OC)cc34)C2c2ccc(OC)cc2)cc1 (configuration not stated)	inactive: 86%

SMILES	survival
COc1ccc2nc(N3CCN(C(=O)C4CC4)CC3)sc2c1	inactive: 97%
O=C(NCc1ccccc1)N(Cc1nc2ccccc2c(=O)[nH]1)C1CCCC1	active: 52%
COC(=O)c1cc2oc3ccccc3c2n1Cc1c(F)cccc1Cl	inactive: 118%
CCc1cccc(NC(=O)CN2CCCN(Cc3cccc(C)c3)S2(=O)=O)c1	inactive: 78%
Cc1ccc(Cl)cc1N(C)C(=O)c1cnc(N2CCOCC2)c2ccccc12	inactive: 98%
CN(N)c1cc(=O)n(C)c(=O)[nH]1	inactive: 96%
CCOc1ccc2nc(NCCNC(=O)c3cc(OC)c(OC)c(OC)c3)c(C#N)cc2c1	inactive: 76%
CCN(CC)C(=O)C1CCCN(c2ncnc3onc(C)c23)C1 (configuration not stated)	inactive: 99%
O=C(CC1Oc2ccc(Cl)cc2NC1=O)NCc1ccccc1 (configuration not stated)	inactive: 78%
C/C(=N\NC(N)=O)C1CC(CC(C)C)C(=O)O1 (configuration not stated)	inactive: 101%
CCOc1ccccc1C(=O)NC1CC2CCCC(C1)N2C1CC1 (configuration not stated)	inactive: 75%
CCOC(=O)CC(NC(=O)Cn1nnc(-c2ccc(C(F)(F)F)cc2)n1)c1ccc(C)cc1 (configuration not stated)	inactive: 62%
O=C(NCC(c1cccnc1)N1CCN(Cc2ccccc2)CC1)C(=O)Nc1cccc(F)c1 (configuration not stated)	inactive: 105%
CCCCc1nn2c(=O)cc(COC(=O)c3cccc(NC(=O)c4cccs4)c3)nc2s1	inactive: 62%
CS(=O)(=O)N(CCc1ccccc1)CC(=O)N1CCCC1	inactive: 100%
CC(=O)Nc1ccc(NC(=O)c2csnn2)cc1	inactive: 78%
COCCN1C(=O)N(c2cccc(OC)c2)C(=O)C1CC(=O)Nc1ccccc1 (configuration not stated)	inactive: 139%
O=C(NCc1ccc(Cl)cc1)C(=O)NCC(c1ccc2c(c1)OCO2)N1CCOCC1 (configuration not stated)	inactive: 98%
COc1cc2ccccc2cc1C(=O)N1CCN(c2nc3c(F)cccc3s2)CC1	inactive: 92%
Cc1cc(C)n2c(Nc3ccc4c(c3)OCCO4)c(-c3ccccc3)nc2n1	inactive: 117%
CCS(=O)(=O)N1CC(=O)N(c2cc(C)cc(C)c2)C(C)(C(=O)NC2CCCCC2)C1 (configuration not stated)	inactive: 92%
COc1ccc(N2CCN(CCCNC(=O)c3nnc(Cc4ccccc4Cl)o3)CC2)cc1	inactive: 85%
CC(=O)c1ccc(NC(=O)CSc2nnc(-c3ccncc3)n2-c2ccccc2)cc1	inactive: 75%
